Data published in PubChem BioAssay AID504466 (National Center for Advancing Translational Sciences (NCATS), 2011).
The campaign covered roughly 330,000 compounds. About 4,200 (1.3%) were called active. The inconclusive results got no clear call from the source; some entries with a clear call stand among them for comparison. Calls follow the shape of the dose curve; as a rule, active = well fitted activation curve with a large enough effect; inconclusive = small, poorly fitted or top-dose-only effect; inactive = no such curve, though single readings can be large or run the other way. A potency beside an inconclusive call is a rough fit, not a confirmed value.

Assay: qHTS screen for small molecules that induce genotoxicity in human embryonic kidney (HEK293T) cells expressing luciferase-tagged ELG1; also: nearly all actives have a fitted effect of over 60% in size; as to activity change, positive = activation: % of control where 0% means no effect
Details: HEK293T ELG1-luciferase reporter, luminescence, 16 h; series mostly up to 46 µM
Description: NIH Molecular Libraries Probe Production Network [MLPCN] NIH Chemical Genomics Center [NCGC] MLPCN Grant: 1 R03 MH092164-01 Assay Provider: Kyungjae Myung, NHGRI, NIH Keywords: MLPCN, qHTS, NCGC, genotoxicity, cancer Assay Overview: Cancer cells divide rapidly compared to normal cells in the body. During cell division, cancer cells need to duplicate their genome by DNA replication. The failure of genome duplication leads to cancer cells' death. Therefore, inhibitors of DNA replication could specifically kill cancer cells. Based on this concept, many chemotherapeutic agents were developed and have been used to treat cancer patients. However, there are a limited number of agents available in the clinical setting, and some of those that do exist have low efficacy and severe side effects. Therefore, if we can find the compounds that effectively block DNA replication either by directly damaging DNA or by inhibiting other cellular mechanisms, the options for cancer treatment will be broadened. With this in mind, we developed a quantitative high-throughput ELG1-luciferase reporter gene assay. Since the level of human ELG1 protein is enhanced in response to genetic stresses, increases in luciferase activity can be used to identify compounds that cause genetic stress.
Assay Protocol Summary: For genotoxicity screening, 2,000 cells in 5 uL/well were dispensed into white, solid-bottom 1536-well plates using a solenoid-based dispenser. Following transfer of 23 nL compound or DMSO vehicle by a pin tool, the plates were incubated 16 hr at 37 °C and 5% CO2. 5 ul ONE-Glo (Promega) was then added to each plate and following a 30 min incubation at room temperature, luciferase activity was quantified on a ViewLux CCD-based plate reader.
Potency is read from the fitted curve at half-maximal effect; tags tell the direction and shape of the fitted curve.

Structure (SMILES) | Potency | activity change, positive = activation
CCCCOC(=O)n1c(=O)oc2ccccc21 | inconclusive: 28.2 µM [activator, single point] | –
O=c1c2cc(N3CCOCC3)ccc2[nH]c(=S)n1Cc1ccc(Cl)cc1 | inconclusive: 16.4 µM [activator, partial curve] | –
COc1ccc2o/c(=N\O)c(C(=O)Nc3ccc(C)cc3)cc2c1 | inconclusive: 23.1 µM [activator, partial curve, poor fit] | –
COC(=O)[C@@H]1C[C@H]1[C@@H](NP(=O)(c1ccccc1)c1ccccc1)c1ccccc1 | active: 18.4 µM | –
COc1cc(/C=N/NC(=O)CN2CCCCC2)ccc1OCc1ccccc1 | inconclusive: 23.1 µM [activator, single point] | –
CC(C)(C)c1ccc(OCCON2C(=O)CCC2=O)c(Cl)c1 | inconclusive: 18.4 µM [activator, partial curve, poor fit] | –
CN(C)c1ccc(NC(=O)Oc2ccccc2)cc1 | inconclusive: 1.64 µM [activator, partial curve, poor fit] | –
C=C1C(=O)O[C@@H]2C[C@@H](C)[C@H]3C=CC(=O)[C@]3(O)C[C@@H]12 | inconclusive: 23.1 µM [activator, single point] | –
Nc1ccc2nc3c(c(Cl)c2c1)CCCC3 | inconclusive: 23.1 µM [activator, single point] | –
O=C1Nc2cc(C(=O)N3CCC4(CC3)OCCO4)ccc2S/C1=C\c1ccccc1 | – | inactive: 3.42% [at 9.26 µM]
COc1ccc(C2=NCc3nnc(C)n3-c3ccc(Cl)cc32)cc1Cl | inconclusive: 14.6 µM [activator, partial curve] | –
O=C1NC(=O)N(c2ccc3c(c2)OCO3)C(=O)/C1=C/c1cccs1 | inconclusive: 29.1 µM [activator, single point] | –
C=CCN1C(=O)/C(=C/c2cc(C)n(-c3ccccn3)c2C)C(=O)NC1=S | inconclusive: 29.1 µM [activator, single point] | –
COC(=O)c1ccc(-c2nc(-c3ccc(Br)o3)no2)cc1 | inconclusive: 2.59 µM [activator, full curve] | –
Cc1cc(NC(=O)c2noc3c2CCCCC3)no1 | inconclusive: 20.6 µM [activator, partial curve, poor fit] | –
CC1CCN(CC(=O)c2ccccc2Cl)CC1 | inconclusive: 13 µM [activator, partial curve] | –
COc1ccccc1N1CCN(Cc2ccc(Br)s2)CC1 | inactive | –
Cc1cc(C(=O)N=Nc2c(O)n(C)c3ccccc23)c(C)o1 | active: 7.31 µM | –
